# From the supplement of paper PMC8728848
# Some of the results follow.
# Tests used:
# Experiment in all cases: glycan array binding signal (z-score within array); higher = stronger binding
# Conditions in all cases: glycan notation: IUPAC condensed, linker removed
# GalNAc(a1-3)GalNAc = target: GalNAc(a1-3)GalNAc
# Method in brief: (§1)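 From the Consortium for Functional Glycomics database, 3228 arrays were curated, keeping only those whose protein sequence was available. Binding is given as a within-array Z-score averaged across arrays sharing a protein sequence and across linkers. Negative Z-scores can be read as non-binding.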
# [1] = target: GalNAc(a1-3)GalNAc(b1-3)Gal(a1-4)Gal(b1-4)Glc
# Method in brief: as §1
# [2] = target: GalNAc(a1-3)GalNAc(b1-3)Gal(a1-4)Gal(b1-4)GlcNAc
# Method in brief: as §1
# GalNAc(b1-3)Gal = target: GalNAc(b1-3)Gal
# Method in brief: as §1
# [3] = target: GalNAc(b1-3)Gal(a1-4)Gal(b1-4)GlcNAc
# Method in brief: as §1
# [4] = target: GalNAc(b1-3)Gal(a1-4)Gal(b1-4)GlcNAc(b1-3)Gal(b1-4)Glc
# Method in brief: as §1
# [5] = target: GalNAc(b1-3)Gal(a1-6)Gal(b1-4)Glc
# Method in brief: as §1
# GalNAc(b1-3)GalNAc = target: GalNAc(b1-3)GalNAc
# Method in brief: as §1
# GalNAc(b1-3)GlcNAc = target: GalNAc(b1-3)GlcNAc
# Method in brief: as §1
# GalNAc(b1-4)Gal(b1-4)Glc = target: GalNAc(b1-4)Gal(b1-4)Glc
# Method in brief: as §1
# GalNAc(b1-4)GlcNAc = target: GalNAc(b1-4)GlcNAc
# Method in brief: as §1
# [6] = target: GalNAc(b1-4)GlcNAc(b1-2)Man
# Method in brief: as §1
# [7] = target: GalNAc(b1-4)GlcNAc(b1-2)Man(a1-3)[GalNAc(b1-4)GlcNAc(b1-2)Man(a1-6)]Man(b1-4)GlcNAc(b1-4)GlcNAc
# Method in brief: as §1
# [8] = target: GalNAc(b1-4)GlcNAc(b1-3)GalNAc(b1-4)GlcNAc
# Method in brief: as §1
# GalNAc(b1-4)GlcNAc6S = target: GalNAc(b1-4)GlcNAc6S
# Method in brief: as §1
# GalNAc(b1-6)GalNAc = target: GalNAc(b1-6)GalNAc
# Method in brief: as §1
# GalNAc3S(b1-4)GlcNAc = target: GalNAc3S(b1-4)GlcNAc
# Method in brief: as §1
# GalNAc3S(b1-4)GlcNAc3S = target: GalNAc3S(b1-4)GlcNAc3S
# Method in brief: as §1
# [9] = target: GalNAc3S(b1-4)[Fuc(a1-3)]GlcNAc
# Method in brief: as §1
# GalNAc4S6S(b1-4)GlcNAc = target: GalNAc4S6S(b1-4)GlcNAc
# Method in brief: as §1
# GalNAc6S(b1-4)GlcNAc = target: GalNAc6S(b1-4)GlcNAc
# Method in brief: as §1
# Glc(a1-4)Glc = target: Glc(a1-4)Glc
# Method in brief: as §1
# [10] = target: Glc(a1-4)Glc(a1-4)Glc(a1-4)Glc
# Method in brief: as §1
# Glc(a1-6)Glc(a1-6)Glc = target: Glc(a1-6)Glc(a1-6)Glc
# Method in brief: as §1
# [11] = target: Glc(a1-6)Glc(a1-6)Glc(a1-6)Glc
# Method in brief: as §1
# Glc(b1-4)Glc = target: Glc(b1-4)Glc
# Method in brief: as §1
# Glc(b1-6)Glc = target: Glc(b1-6)Glc
# Method in brief: as §1
# GlcA(b1-3)Gal = target: GlcA(b1-3)Gal
# Method in brief: as §1
# GlcA(b1-3)GlcNAc = target: GlcA(b1-3)GlcNAc
# Method in brief: as §1
# GlcA(b1-6)Gal = target: GlcA(b1-6)Gal
# Method in brief: as §1
# [12] = target: GlcA3S(b1-3)Gal(b1-4)GlcNAc(b1-2)Man
# Method in brief: as §1
# [13] = target: GlcA3S(b1-3)Gal(b1-4)GlcNAc(b1-3)Gal(b1-4)Glc
# Method in brief: as §1
# [14] = target: GlcNAc(a1-3)Gal(b1-4)GlcNAc
# Method in brief: as §1
# [15] = target: GlcNAc(a1-4)Gal(b1-3)GlcNAc
# Method in brief: as §1
# [16] = target: GlcNAc(a1-4)Gal(b1-4)GalNAc
# Method in brief: as §1
# [17] = target: GlcNAc(a1-4)Gal(b1-4)GlcNAc
# Method in brief: as §1
# [18] = target: GlcNAc(a1-4)Gal(b1-4)GlcNAc(b1-3)Gal(b1-4)Glc
# Method in brief: as §1
binder,measurement,setting,value
"MGL1 (Mus musculus), P49300 (protein) MIYENLQNSRIEEKTQEPGKAPSQSFLWRILSWTHLLLFSLGLSLLLLVVVSVIGSQNSQLRRDLGTLRATLDNTTSKIKAEFQSLDSRADSFEKGISSLKVDVEDHRQELQAGRDLSQKVTSLESTVEKREQALKTDLSDLTDHVQQLRKDLKALTCQLANLKNNGSEVACCPLHWTEHEGSCYWFSESEKSWPEADKYCRLENSHLVVVNSLEEQNFLQNRLANVVSWIGLTDQNGPWRWVDGTDFEKGFKNWAPLQPDNWFGHGLGGGEDCAHITTGGPWNDDVCQRTFRWICEMKLAKES",glycan array binding signal (z-score),GalNAc(a1-3)GalNAc,-0.786
same,glycan array binding signal (z-score),[1],-0.481
same,glycan array binding signal (z-score),[2],-0.615
same,glycan array binding signal (z-score),GalNAc(b1-3)Gal,-0.448
same,glycan array binding signal (z-score),[3],0.475
same,glycan array binding signal (z-score),[4],-0.339
same,glycan array binding signal (z-score),[5],-0.397
same,glycan array binding signal (z-score),GalNAc(b1-3)GalNAc,-0.31
same,glycan array binding signal (z-score),GalNAc(b1-3)GlcNAc,-0.924
same,glycan array binding signal (z-score),GalNAc(b1-4)Gal(b1-4)Glc,-0.519
same,glycan array binding signal (z-score),GalNAc(b1-4)GlcNAc,0.054
same,glycan array binding signal (z-score),[6],-0.244
same,glycan array binding signal (z-score),[7],0.218
same,glycan array binding signal (z-score),[8],-1.05
same,glycan array binding signal (z-score),GalNAc(b1-4)GlcNAc6S,0.045
same,glycan array binding signal (z-score),GalNAc(b1-6)GalNAc,-0.374
same,glycan array binding signal (z-score),GalNAc3S(b1-4)GlcNAc,-0.099
same,glycan array binding signal (z-score),GalNAc3S(b1-4)GlcNAc3S,-0.361
same,glycan array binding signal (z-score),[9],-0.178
same,glycan array binding signal (z-score),GalNAc4S6S(b1-4)GlcNAc,-0.581
same,glycan array binding signal (z-score),GalNAc6S(b1-4)GlcNAc,0.509
same,glycan array binding signal (z-score),Glc(a1-4)Glc,-0.443
same,glycan array binding signal (z-score),[10],-0.429
same,glycan array binding signal (z-score),Glc(a1-6)Glc(a1-6)Glc,0.293
same,glycan array binding signal (z-score),[11],-0.085
same,glycan array binding signal (z-score),Glc(b1-4)Glc,-0.045
same,glycan array binding signal (z-score),Glc(b1-6)Glc,-0.306
same,glycan array binding signal (z-score),GlcA(b1-3)Gal,-0.264
same,glycan array binding signal (z-score),GlcA(b1-3)GlcNAc,-0.575
same,glycan array binding signal (z-score),GlcA(b1-6)Gal,-0.259
same,glycan array binding signal (z-score),[12],-0.705
same,glycan array binding signal (z-score),[13],-0.103
same,glycan array binding signal (z-score),[14],-0.184
same,glycan array binding signal (z-score),[15],0.26
same,glycan array binding signal (z-score),[16],-0.312
same,glycan array binding signal (z-score),[17],-0.528
same,glycan array binding signal (z-score),[18],-0.674
